Results: the supplement of paper PMC4967469
A lower IC50 marks a more sensitive line; where the fit passes the top or lowest dose, that dose stands as a limit. For AUC the same curve is integrated over the 256-fold range of doses and scaled to a fraction; the more sensitive the line, the further below 1. Where the top dose is marked as inferred, it was calculated from the reported fits. For some assays here: Drugs with an entry number were screened twice under separate entries, and the two screens often disagree.

Tests used:
Experiment in all cases: Viability of human cancer cell lines after 72 h of drug (GDSC screen)
BMN-673 = compound: Cn1ncnc1[C@H]1c2n[nH]c(=O)c3cc(F)cc(c23)N[C@@H]1c1ccc(F)cc1 [BMN-673]; settings: top dose 10 µM; top dose inferred
Experimental: (§1)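 Human cancer cell lines in 384-well plates, medium with 10% serum, drug for 72 h over a 256-fold dose range (nine 2-fold or five 4-fold steps up to the top dose). Adherent lines were fixed and stained with the nucleic acid dye Syto60, suspension lines read with resazurin; signal relative to control wells, capped at 0 and 100%. One two-parameter sigmoid per drug and line, fitted in a mixed model over all curves with the slope shared within a line.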

MLN4924 = compound: NS(=O)(=O)OC[C@@H]1C[C@@H](n2ccc3c(N[C@H]4CCc5ccccc54)ncnc32)C[C@@H]1O [MLN4924]; settings: top dose 1 µM; top dose inferred
Experimental: as §1

XMD11-85h = compound: COc1cc(C(=O)NC2CCN(C)CC2)ccc1Nc1ncc2c(n1)N(C1CCCC1)CCC(=O)N2C(C)C [XMD11-85h]; settings: top dose 10 µM; top dose inferred
Experimental: as §1

AZD6482 = compound: Cc1cc([C@@H](C)Nc2ccccc2C(=O)O)c2nc(N3CCOCC3)cc(=O)n2c1 [AZD6482]
Experimental: as §1

[1] = top dose 5 µM, screen: GDSC drug entry 1066, top dose inferred
[2] = top dose 5.12 µM, screen: GDSC drug entry 156

Cell Line	AUC (BMN-673)	IC50 (BMN-673) [µM]	AUC (MLN4924)	IC50 (MLN4924) [µM]	AUC (XMD11-85h)	IC50 (XMD11-85h) [µM]	AUC (AZD6482; [1])	IC50 (AZD6482; [1]) [µM]	AUC (AZD6482; [2])	IC50 (AZD6482; [2]) [µM]
huH-1 (liver, adherent)	0.72	3.1	0.78	0.516	0.982	> 10	0.874	> 5	0.969	> 5.12
no-10 (glioma, adherent)	0.849	> 10	0.961	> 1	0.956	> 10	0.936	> 5	0.9	> 5.12
